Measured values published in publication PMC8270969.
No constants are given. Whether binding was seen depends on the method and setting. In cells and extracts the contact can be indirect. Some results given as binding are weak or reduced against the parent protein; the word gives no strength. For some of these results: Sequences can lack the tags named with a protein. Blank lines part the entries; values can stand above or below the molecule they belong to.

By UniProt entry, the sequences of proteins in these tests, tags left out. Residues count along the entry.
UniProt P05362, residues 28-532: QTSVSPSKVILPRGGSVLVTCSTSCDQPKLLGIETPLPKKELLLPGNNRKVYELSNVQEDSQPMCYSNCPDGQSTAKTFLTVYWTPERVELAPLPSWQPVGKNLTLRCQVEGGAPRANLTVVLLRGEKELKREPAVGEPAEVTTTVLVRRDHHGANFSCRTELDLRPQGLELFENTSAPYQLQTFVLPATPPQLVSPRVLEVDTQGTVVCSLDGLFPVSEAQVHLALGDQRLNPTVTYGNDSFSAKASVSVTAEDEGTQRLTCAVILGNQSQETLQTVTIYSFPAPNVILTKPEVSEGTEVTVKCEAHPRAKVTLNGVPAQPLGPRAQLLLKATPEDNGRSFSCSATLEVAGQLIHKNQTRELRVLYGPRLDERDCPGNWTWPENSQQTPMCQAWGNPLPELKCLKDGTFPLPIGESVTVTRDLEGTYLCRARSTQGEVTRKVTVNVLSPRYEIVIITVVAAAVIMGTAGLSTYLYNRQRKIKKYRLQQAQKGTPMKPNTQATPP
UniProt P02671, residues 36-866: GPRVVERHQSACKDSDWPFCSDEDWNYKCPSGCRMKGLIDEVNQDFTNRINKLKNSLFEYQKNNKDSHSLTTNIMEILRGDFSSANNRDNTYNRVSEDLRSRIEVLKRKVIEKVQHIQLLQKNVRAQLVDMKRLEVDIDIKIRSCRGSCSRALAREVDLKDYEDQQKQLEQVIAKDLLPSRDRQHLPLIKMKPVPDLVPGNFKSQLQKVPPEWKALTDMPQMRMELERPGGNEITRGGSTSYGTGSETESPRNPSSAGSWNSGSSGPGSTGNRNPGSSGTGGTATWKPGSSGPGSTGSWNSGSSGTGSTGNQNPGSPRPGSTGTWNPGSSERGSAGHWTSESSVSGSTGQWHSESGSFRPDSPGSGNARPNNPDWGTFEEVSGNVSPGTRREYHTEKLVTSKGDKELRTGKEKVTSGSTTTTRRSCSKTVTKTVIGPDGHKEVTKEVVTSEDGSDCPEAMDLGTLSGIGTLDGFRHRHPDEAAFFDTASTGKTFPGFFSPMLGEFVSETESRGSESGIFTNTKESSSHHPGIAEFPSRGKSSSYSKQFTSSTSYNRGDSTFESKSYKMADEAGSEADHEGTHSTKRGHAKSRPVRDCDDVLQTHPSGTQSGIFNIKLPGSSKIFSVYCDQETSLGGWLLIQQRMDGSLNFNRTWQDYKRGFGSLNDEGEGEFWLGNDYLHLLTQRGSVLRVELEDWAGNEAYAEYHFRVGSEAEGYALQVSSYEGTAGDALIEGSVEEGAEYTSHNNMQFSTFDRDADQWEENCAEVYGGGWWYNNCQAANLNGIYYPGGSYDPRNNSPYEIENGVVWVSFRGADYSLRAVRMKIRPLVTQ
UniProt P02679, residues 27-453: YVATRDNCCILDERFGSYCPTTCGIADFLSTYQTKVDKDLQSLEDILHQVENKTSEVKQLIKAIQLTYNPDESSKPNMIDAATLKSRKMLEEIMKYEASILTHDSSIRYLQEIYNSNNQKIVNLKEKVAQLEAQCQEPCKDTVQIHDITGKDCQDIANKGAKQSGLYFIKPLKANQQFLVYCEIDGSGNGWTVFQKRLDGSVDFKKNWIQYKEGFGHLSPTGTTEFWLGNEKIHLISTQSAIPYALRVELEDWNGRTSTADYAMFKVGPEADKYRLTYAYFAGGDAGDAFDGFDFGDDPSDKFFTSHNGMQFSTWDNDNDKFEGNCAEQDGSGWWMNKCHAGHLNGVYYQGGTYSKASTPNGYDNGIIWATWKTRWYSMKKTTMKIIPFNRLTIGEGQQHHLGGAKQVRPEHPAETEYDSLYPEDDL
UniProt P20702, residues 20-1163: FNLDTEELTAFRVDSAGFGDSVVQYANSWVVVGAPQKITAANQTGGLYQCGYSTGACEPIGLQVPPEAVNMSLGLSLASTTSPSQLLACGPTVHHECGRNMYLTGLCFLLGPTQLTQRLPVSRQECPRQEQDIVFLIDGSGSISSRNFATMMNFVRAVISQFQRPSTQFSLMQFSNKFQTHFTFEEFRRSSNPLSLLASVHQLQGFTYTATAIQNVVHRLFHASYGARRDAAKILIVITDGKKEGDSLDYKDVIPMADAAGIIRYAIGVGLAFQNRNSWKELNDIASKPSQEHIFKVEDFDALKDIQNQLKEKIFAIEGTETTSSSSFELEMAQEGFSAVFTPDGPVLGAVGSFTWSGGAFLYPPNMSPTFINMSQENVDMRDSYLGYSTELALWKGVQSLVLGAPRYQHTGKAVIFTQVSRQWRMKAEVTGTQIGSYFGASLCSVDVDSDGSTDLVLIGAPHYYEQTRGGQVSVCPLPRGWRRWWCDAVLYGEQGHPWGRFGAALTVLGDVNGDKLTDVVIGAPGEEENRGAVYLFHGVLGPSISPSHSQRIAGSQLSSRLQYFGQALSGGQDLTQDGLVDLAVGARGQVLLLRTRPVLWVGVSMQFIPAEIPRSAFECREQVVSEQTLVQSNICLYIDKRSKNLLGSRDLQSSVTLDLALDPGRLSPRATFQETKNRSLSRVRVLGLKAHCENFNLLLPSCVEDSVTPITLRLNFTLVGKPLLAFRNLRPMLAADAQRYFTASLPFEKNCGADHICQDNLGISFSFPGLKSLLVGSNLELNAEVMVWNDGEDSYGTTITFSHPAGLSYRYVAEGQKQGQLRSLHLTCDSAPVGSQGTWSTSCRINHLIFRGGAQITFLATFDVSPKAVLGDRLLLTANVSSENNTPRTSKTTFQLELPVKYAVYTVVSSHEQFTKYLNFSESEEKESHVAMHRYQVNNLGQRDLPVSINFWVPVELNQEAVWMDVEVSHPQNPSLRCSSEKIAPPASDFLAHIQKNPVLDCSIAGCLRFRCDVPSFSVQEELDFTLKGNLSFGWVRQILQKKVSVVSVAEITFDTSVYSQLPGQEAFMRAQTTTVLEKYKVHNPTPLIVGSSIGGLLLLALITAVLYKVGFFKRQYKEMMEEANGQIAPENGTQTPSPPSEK
UniProt P05107, residues 23-769: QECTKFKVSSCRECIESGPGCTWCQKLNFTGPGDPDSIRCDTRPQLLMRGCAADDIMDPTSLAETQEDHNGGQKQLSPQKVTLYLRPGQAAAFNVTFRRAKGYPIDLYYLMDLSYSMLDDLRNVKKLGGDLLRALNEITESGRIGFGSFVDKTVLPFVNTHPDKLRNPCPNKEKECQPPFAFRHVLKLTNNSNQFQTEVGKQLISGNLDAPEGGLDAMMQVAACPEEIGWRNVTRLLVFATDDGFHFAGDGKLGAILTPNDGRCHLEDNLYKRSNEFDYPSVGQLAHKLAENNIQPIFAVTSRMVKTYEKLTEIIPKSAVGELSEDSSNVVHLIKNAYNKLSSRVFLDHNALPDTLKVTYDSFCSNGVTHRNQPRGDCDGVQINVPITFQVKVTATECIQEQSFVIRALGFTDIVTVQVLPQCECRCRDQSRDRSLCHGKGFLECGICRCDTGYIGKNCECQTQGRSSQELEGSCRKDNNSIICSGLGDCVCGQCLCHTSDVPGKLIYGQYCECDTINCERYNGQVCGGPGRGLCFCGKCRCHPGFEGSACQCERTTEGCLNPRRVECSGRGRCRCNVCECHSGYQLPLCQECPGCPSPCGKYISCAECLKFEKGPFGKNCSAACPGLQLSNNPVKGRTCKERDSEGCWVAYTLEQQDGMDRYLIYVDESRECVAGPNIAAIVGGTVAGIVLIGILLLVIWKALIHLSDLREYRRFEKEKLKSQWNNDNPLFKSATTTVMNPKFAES
UniProt P35579: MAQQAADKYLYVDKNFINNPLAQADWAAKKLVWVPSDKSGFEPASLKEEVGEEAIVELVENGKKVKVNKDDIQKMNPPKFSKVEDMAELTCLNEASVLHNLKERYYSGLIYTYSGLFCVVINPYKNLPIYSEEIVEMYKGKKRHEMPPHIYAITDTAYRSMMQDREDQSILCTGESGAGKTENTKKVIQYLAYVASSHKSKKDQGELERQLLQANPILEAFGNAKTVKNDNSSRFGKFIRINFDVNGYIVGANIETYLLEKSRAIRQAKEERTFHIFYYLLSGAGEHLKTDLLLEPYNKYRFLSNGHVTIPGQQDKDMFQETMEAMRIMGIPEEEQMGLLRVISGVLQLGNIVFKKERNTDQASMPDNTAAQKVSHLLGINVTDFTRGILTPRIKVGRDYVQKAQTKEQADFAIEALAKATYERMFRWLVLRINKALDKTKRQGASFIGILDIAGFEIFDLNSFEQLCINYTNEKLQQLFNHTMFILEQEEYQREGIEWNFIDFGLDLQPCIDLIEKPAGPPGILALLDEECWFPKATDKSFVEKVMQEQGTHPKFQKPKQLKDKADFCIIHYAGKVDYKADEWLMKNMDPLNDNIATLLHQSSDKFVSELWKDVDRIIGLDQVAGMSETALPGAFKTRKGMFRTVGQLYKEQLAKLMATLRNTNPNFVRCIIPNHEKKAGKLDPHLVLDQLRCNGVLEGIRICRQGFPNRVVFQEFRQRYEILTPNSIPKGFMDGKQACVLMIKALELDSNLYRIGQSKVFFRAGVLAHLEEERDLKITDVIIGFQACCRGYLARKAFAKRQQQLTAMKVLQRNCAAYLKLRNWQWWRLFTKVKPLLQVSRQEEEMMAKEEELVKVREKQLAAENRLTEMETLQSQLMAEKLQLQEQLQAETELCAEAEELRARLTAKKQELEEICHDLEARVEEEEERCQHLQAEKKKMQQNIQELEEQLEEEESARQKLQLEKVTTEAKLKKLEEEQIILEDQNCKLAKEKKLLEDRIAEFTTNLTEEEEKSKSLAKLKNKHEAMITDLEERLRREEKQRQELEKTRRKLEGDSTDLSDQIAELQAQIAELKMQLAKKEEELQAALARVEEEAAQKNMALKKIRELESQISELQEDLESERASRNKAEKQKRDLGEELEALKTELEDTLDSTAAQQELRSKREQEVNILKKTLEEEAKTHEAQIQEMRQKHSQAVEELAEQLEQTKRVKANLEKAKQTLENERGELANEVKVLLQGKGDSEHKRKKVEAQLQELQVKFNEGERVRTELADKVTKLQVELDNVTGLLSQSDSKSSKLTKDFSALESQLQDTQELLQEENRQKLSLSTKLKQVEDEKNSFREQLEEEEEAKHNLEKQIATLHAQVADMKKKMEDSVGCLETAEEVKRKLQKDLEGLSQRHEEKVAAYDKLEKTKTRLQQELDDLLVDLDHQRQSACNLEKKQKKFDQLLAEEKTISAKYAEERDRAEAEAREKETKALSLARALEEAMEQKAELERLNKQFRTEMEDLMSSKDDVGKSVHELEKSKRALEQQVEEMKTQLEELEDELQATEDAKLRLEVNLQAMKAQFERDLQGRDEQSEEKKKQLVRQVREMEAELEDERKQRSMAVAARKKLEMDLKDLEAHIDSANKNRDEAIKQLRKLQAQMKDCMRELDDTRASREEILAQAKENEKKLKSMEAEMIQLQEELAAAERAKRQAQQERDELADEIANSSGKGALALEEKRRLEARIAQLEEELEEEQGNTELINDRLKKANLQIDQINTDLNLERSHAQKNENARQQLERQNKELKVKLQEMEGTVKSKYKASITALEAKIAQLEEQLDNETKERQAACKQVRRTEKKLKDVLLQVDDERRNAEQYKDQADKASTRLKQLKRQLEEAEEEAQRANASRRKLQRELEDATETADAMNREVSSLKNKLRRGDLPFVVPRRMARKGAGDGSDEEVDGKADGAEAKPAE

Columns and labels:
[1] = biological target: T1, HA-tagged ECM1a (extracellular matrix protein-1, secretory isoform a), wild type (human) (UniProt Q16610); test: co-IP; cell culture supernatants (conditioned medium) collected from HeyA8 cells overexpressing HA-ECM1a or HA-ECM1b
T1 sequence: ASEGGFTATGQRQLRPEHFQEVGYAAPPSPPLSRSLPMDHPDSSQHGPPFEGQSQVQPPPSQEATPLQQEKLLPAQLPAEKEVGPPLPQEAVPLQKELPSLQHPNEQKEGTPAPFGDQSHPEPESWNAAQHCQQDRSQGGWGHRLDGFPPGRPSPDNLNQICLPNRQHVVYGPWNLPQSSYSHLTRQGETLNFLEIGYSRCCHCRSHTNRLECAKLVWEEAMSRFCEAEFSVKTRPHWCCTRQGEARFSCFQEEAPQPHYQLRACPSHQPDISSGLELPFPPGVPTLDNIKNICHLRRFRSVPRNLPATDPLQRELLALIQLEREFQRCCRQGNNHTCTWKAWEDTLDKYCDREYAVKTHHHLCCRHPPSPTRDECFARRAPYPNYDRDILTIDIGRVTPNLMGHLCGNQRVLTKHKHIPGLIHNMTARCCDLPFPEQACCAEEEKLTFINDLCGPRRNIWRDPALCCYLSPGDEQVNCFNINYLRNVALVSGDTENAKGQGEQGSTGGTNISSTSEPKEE

[2] = biological target: T2, CD90 (Thy-1) (human (endogenous in HeyA8)) (UniProt P04216); test: co-IP; reverse co-IP: lysates of A8, A8i and A8i-A cells precipitated with antibodies against the ligands, WB for integrin αX or β2
T2 sequence: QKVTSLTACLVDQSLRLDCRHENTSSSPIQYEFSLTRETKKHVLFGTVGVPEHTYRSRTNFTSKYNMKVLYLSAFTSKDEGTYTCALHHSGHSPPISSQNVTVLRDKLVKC

[3] = biological target: ICAM-1 (human (endogenous in HeyA8)) (UniProt P05362); test: as above
[4] = biological target: fibrinogen α chain (human (endogenous in HeyA8)) (UniProt P02671); test: as above
[5] = biological target: fibrinogen γ chain (human (endogenous in HeyA8)) (UniProt P02679); test: as above
[6] = biological target: T1, HA-tagged ECM1a (extracellular matrix protein-1, secretory isoform a), wild type (human); test: proximity ligation; Duolink In Situ Red kit on cells cultured on cover slides at 75% confluence; controls with mouse IgG or the control kit
[7] = biological target: T3, HA-tagged ECM1b (extracellular matrix protein-1, non-secretory isoform b) (human) (UniProt Q16610); test: as above
T3 sequence: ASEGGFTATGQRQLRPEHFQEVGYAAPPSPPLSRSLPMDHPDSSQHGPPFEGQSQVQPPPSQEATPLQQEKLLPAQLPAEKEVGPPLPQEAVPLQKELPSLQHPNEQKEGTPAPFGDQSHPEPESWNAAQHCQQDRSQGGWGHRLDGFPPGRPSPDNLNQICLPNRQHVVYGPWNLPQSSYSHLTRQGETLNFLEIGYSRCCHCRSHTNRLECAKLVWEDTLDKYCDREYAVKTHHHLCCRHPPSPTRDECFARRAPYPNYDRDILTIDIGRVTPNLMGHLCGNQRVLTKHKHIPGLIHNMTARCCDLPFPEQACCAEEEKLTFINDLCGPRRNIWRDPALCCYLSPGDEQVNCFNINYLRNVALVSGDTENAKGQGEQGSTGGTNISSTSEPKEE

[8] = biological target: T1, HA-tagged ECM1a (extracellular matrix protein-1, secretory isoform a), wild type (human); test: co-IP; 0.5-1.0 mg whole-cell lysate of A8i cells expressing HA-ECM1a, HA-ECM1b or HA-ECM1a-MT in RIPA lysis buffer, 2 ug antibody or normal IgG, detection by WB
[9] = biological target: T3, HA-tagged ECM1b (extracellular matrix protein-1, non-secretory isoform b) (human); test: as above
[10] = biological target: T1, HA-tagged ECM1a (extracellular matrix protein-1, secretory isoform a), wild type (human); test: co-IP; cell surface biotinylation (EZ-Link Sulfo-NHS-SS-Biotin, NeutrAvidin Agarose), isolated cell surface components precipitated with an HA antibody, WB for integrin αX or β2
[11] = biological target: integrin αX (human (endogenous in HeyA8)) (UniProt P20702); test: co-IP; lysates of A8, A8i and A8i-A cells precipitated with antibodies against integrin αX or β2, WB for the ligands
[12] = biological target: integrin β2 (human (endogenous in HeyA8)) (UniProt P05107); test: as above

Molecule: fibrinogen α chain (from UniProt P02671 36-866) (ligand)
binding [11]: binds

Molecule: nonphosphorylated myosin IIa (from UniProt P35579 1-1960)
binding [8]: no binding

Molecule: integrin β2 (from UniProt P05107 23-769) (receptor)
binding [1]: binds
binding [6]: binds
binding [7]: no binding
binding [8]: binds
binding [9]: no binding
binding [10]: binds

Molecule: ICAM-1 (from UniProt P05362 28-532) (ligand)
binding [11]: binds

B1: CD90 (Thy-1) (ligand, UniProt P04216 20-130)
chain: QKVTSLTACLVDQSLRLDCRHENTSSSPIQYEFSLTRETKKHVLFGTVGVPEHTYRSRTNFTSKYNMKVLYLSAFTSKDEGTYTCALHHSGHSPPISSQNVTVLRDKLVKC
binding [11]: binds
binding [12]: no binding

Second part, the molecule after the results:

binding [1]: binds
binding [2]: binds
binding [3]: binds
binding [4]: binds
binding [5]: binds
binding [6]: binds
binding [7]: no binding
binding [8]: binds
binding [9]: no binding
binding [10]: binds
Molecule: integrin αX (from UniProt P20702 20-1163) (receptor)

binding [11]: binds
Molecule: fibrinogen γ chain (from UniProt P02679 27-453) (ligand)
